Data reported in the supplement of paper PMC3334620.
The full ranking holds about 33,000 sequences; the median of “E-score (-0.5 to 0.5)” is about -0.035, and the highest 2% start at about 0.34. The list shows a part of the results.

What follows are sequences tested against T1, Mot3 (UniProt P54785) (assay: PBM E-score (8-mer binding enrichment) (E-score (-0.5 to 0.5)); higher = stronger / more preferred TF binding; most listed sequences are background and not binding sites). Settings: protein concentration: 200 nM; construct: GST-full length.
T1 sequence: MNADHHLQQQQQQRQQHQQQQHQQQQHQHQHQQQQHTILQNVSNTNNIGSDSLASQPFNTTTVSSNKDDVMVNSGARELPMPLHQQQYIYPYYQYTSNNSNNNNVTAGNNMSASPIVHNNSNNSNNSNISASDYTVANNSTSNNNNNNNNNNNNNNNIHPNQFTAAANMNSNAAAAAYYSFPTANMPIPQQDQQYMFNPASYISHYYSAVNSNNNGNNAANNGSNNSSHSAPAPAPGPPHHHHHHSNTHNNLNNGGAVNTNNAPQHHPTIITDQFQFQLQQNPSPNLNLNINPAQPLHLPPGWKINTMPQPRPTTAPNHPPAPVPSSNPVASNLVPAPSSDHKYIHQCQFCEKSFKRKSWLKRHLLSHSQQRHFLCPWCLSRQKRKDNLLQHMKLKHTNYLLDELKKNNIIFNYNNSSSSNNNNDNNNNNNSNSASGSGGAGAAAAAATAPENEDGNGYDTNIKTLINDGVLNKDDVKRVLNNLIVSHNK
How it was run: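 Detection of bound protein used fluorescent anti-GST, with scans normalised by masliner. The proteins were GST-tagged yeast transcription factors applied at about 100-200 nM to universal all-10-mer Agilent arrays made double-stranded by primer extension. Each ungapped eight-base word, pooled with its reverse complement, was scored with an E-score from the Universal PBM Analysis Suite.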

Sequence	PBM E-score
ACGGCTCA	-0.127
ATACTAAC	0.0815
CAGAAGCA	-0.103
ACGTGCTC	0.0193
CTCGGCCA	-0.17
CTACCCAC	-0.252
AAAGTTTG	0.113
ACGAGTAA	0.147
GCTCAGTA	0.00303
CTTATAAC	0.199
ATACAGCG	-0.0353
GATCACCC	-0.191
CGTGCACC	-0.0966
ACTGCTGG	-0.383
ACCTACTG	0.0236
CTGCGAGA	-0.305
ATGTATTC	0.363
ACACCTGC	0.219
TCCTGTAA	0.338
ACAATTCA	0.101
GGGGAGAA	-0.0327
CGCCCCCC	-0.222

Sequence	PBM E-score
AGCCGGAC	-0.0387
CGCAGGTA	0.35
CCGGTTAA	-0.00784
CGTTACTC	-0.0212
ACCTAGAA	0.0678
ACCTTATA	0.156
CCAAACGG	-0.405
GACCCGAC	-0.23
TATCATGA	-0.00632
GCCTTCCA	0.151
ATTTATAC	0.198
AATTGGCC	-0.17
ACCTCCTA	-0.12
CAGAATCG	-0.219
ATATAGAG	-0.161
GACGGCAC	-0.0936
GCAGGATA	-0.121
AGTTACAC	0.307
CGACATAC	0.0107
AGTTGGAT	-0.0454
CCAATGTA	0.0935
GCACGACC	-0.0631

Sequence	PBM E-score
CAAGTGTC	0.00445
AACCAGAG	0.00174
GTAAAGTA	0.289
CCTTAAGA	0.0196
GAACAGAA	0.0149
ATTCCCTC	-0.13
AAGCGGGT	-0.0617
GAGAGCGA	-0.214
AATTCGTA	0.11
CCTTTGCC	0.225
CACACATG	0.149
GTGCTTTA	0.0864
ACATTAGA	-0.0584
CCTAATAG	0.046
CGTTGCAG	-0.0727
GGTGTGAA	0.0833
AATGGCGA	-0.102
ACACCGTG	0.217
CCGGTTGC	-0.146
GCGAAAAA	0.0872
AGACGGCC	-0.18
AAATGGGA	-0.17

Sequence	PBM E-score
CAAATTGG	0.0771
AGGGGTTA	-0.00811
GCCTTCAC	0.184
AGACCTAC	-0.00972
CATCTAAG	-0.197
CACTTTGG	-0.0925
TCGATAAA	0.0569
CCAACCCG	-0.147
GGCTTGAA	-0.0973
CAAGATGG	-0.099
CCACTGCA	-0.151
GGTTTTAA	0.171
AGACCCTG	-0.144
AACATGCA	0.324
CCTAGCTC	-0.106
TAATCGAA	0.0218
GACTCGAA	-0.207
TAATTCAA	0.296
ACGTAAGA	0.192
AATCAACA	0.253
CTTGAGCC	-0.276
GAGCTCTA	-0.131

Sequence	PBM E-score
CGCCTGGA	0.0564
GCGAGTCC	-0.287
CTGTCGCC	-0.262
ATCGGGCC	-0.258
ACTACTAT	0.0462
GTCACACA	0.113
CTGTCAAA	0.106
ATAGGCAT	0.412
CGTGGATC	-0.143
GATGGCGC	-0.0871
GCCTTCGA	0.229
GGCAATAC	0.257
CGAGACCG	-0.161
GATTTGCA	-0.00568
AACTCCTG	0.14
TATCTCAA	0.125
AACCGATA	0.00264
ACCATGGC	0.0712
CTTATCCA	0.0699
CCATCCCG	-0.237
AAAAGATA	0.0748
CCGTGCGA	-0.0696
